Measured values taken from PubChem BioAssay AID588795 (National Center for Advancing Translational Sciences (NCATS), 2011).
“And” between values parts separate entries of the source, which are not always exact repeats. Identical values can stand only once. The campaign covered roughly 390,000 compounds. About 1,400 (0.36%) were called active. Inconclusive means that the source gave no clear call. Such entries were picked first, then a sample of the others. Calls follow the shape of the dose curve; as a rule, active = well fitted inhibition curve with a large enough effect; inconclusive = small, poorly fitted or top-dose-only effect; inactive = no such curve, though single readings can be large or run the other way. Potencies beside an inconclusive call are fits to weak or partial responses and may not hold up.
Also: nearly all actives have a fitted effect of over 65% in size.
Potency is read from the fitted curve at half-maximal effect; tags tell the direction and shape of the fitted curve.

What follows are compounds tested against Flap endonuclease 1 (Homo sapiens) (UniProt P39748) (assay: qHTS Assay for the Inhibitors of Human Flap endonuclease 1 (FEN1).). Conditions: Recombinant FEN1 flap cleavage, fluorescence, 15 min; series mostly up to 114 µM.
Chain of UniProt P39748 (P39748 whole entry, looked up): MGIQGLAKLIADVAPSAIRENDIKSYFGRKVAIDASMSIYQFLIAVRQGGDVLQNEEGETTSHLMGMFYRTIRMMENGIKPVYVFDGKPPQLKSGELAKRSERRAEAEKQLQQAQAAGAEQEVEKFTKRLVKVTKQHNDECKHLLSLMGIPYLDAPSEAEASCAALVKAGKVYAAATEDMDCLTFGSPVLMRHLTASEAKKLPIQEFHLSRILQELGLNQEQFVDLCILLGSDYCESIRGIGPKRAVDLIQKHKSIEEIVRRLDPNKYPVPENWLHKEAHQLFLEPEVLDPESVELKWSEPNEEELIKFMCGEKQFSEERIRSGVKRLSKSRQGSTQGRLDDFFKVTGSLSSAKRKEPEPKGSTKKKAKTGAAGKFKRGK
Summary of the method: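 Nuclease activity of 10 nM FEN1 was measured after 15 min of room-temperature exposure to titrated compounds, by adding 50 nM flap substrate and reading plates at 0 and 15 min.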
`CCCc1n[nH]c2c1C(=O)CC(C)(C)C2` was tested, and the Potency was “inactive”.
In the case of `O=C(Nc1nc2c(F)cccc2s1)C1CC1`, the Potency is reported as “inactive”.
With `CCS(=O)(=O)c1c(Nc2ccc(F)c(Cl)c2)sc(C(=O)c2ccccc2)c1N` the Potency was inconclusive: 79.4 µM [inhibitor, partial curve, poor fit].
In the case of `CN(C)CCCNC(=O)c1cc(C(=O)C2CCCCC2)c[nH]1`, the Potency is reported as inconclusive: 89.1 µM [inhibitor, single point].
For `Cc1cc(C)c(S(=O)(=O)NCc2ccc3c(c2)cc(C)n3C)c(C)c1`, the Potency was inconclusive: 56.2 µM [inhibitor, partial curve, poor fit].
`O=C(O)CCN1C(=O)/C(=C\c2cccc(OCc3ccccc3)c2)SC1=S` was tested, and the Potency was “inactive”.
For `CCOC(=O)c1cccc(NC(=O)c2cc3ccccc3o2)c1`, the Potency was inconclusive: 10 µM [inhibitor, partial curve, poor fit].
For `COc1ccc2nc(N=Nc3ccc(N(C)C)cc3)sc2c1`, the Potency was “inactive”.
In the case of `Brc1ccccc1C1Nc2cccc3cccc(c23)N1`, the Potency is reported as inconclusive: 44.7 µM [inhibitor, partial curve, poor fit].
For `Cc1ccc(NC(=O)CN2C(=O)C(C)(C)c3cc(S(=O)(=O)N4CCCCC4)ccc32)c(Br)c1`, the Potency was inconclusive: 35.5 µM [inhibitor, partial curve, poor fit].
With `Cc1cc(C)nc(NNS(=O)(=O)c2ccc(F)c(Cl)c2)n1` the Potency was inconclusive: 25.1 µM [inhibitor, single point].
For `COCCn1c(SCC(=O)Nc2cc(C(C)(C)C)nn2-c2ccccc2)nnc1-c1ccncc1`, the Potency was “inactive”.
For `NS(=O)(=O)c1ccc(Nc2nc3ccccc3nc2NS(=O)(=O)c2cccc([N+](=O)[O-])c2)cc1`, the Potency was inconclusive: 89.1 µM [inhibitor, partial curve, poor fit].
With `CCN1CCN(c2cc(C)c3cc(NC(=O)c4cc(OC)cc(OC)c4)ccc3n2)CC1` the Potency was inconclusive: 25.1 µM [inhibitor, full curve] and inconclusive: 44.7 µM [inhibitor, partial curve].
In the case of `COc1ccc(Br)cc1CNC(=O)CCSCc1ccc(Cl)cc1`, the Potency is reported as “inactive”.
In the case of `Cc1cccc(C)c1NC(=O)CSc1nccn1C`, the Potency is reported as “inactive”.
With `CC(C)(C)c1cc(C(=S)N2CCN(CCO)CC2)cc(C(C)(C)C)c1O` the Potency was “inactive”.
With `CCN(C(=O)CCS(=O)(=O)c1cc(Br)cc2c1N(C(=O)C1CC1)CC2)c1cccc(C)c1` the Potency was “inactive”.
With `CC(=O)c1c(O)cc(O)cc1O` the Potency was inconclusive: 35.5 µM [inhibitor, single point].
For `O=C(Nc1ccccc1)OCCOc1ccccc1Br`, the Potency was inconclusive: 50.1 µM [inhibitor, partial curve, poor fit].
In the case of `Cn1c(=O)c(N)c2c3c(c(Br)ccc31)C(=O)c1ccccc1-2`, the Potency is reported as inconclusive: 10 µM [inhibitor, full curve, poor fit].
In the case of `Cc1ccc(CN2C(=O)c3ccccc3C2C(=O)NCc2cccnc2)cc1` (stereo not given), the Potency is reported as “inactive”.
In the case of `Cc1cccc(NC(=O)CN2C(=O)S/C(=C\c3ccc(-c4cccc(C(=O)O)c4C)o3)C2=O)c1`, the Potency is reported as active: 39.8 µM.
For `COc1cccc(CNC(=O)C2Cc3cc(S(=O)(=O)N4CCCCCC4)ccc3N2C(C)=O)c1` (stereo not given), the Potency was “inactive”.
`Cc1nc2c(-c3ccccc3)c(C)nn2c(C)c1CCC(=O)N1CCN(c2ccccc2)CC1` was tested, and the Potency was “inactive”.
`c1cc(SC2CCCCC2)cc(-c2nc3cnccn3c2NC2CCCCC2)c1` was tested, and the Potency was inconclusive: 56.2 µM [inhibitor, partial curve, poor fit].
For `CCOC(=O)C1CCN(c2c(C(=O)c3ccccc3)cnc3ccc(CC)cc23)CC1`, the Potency was inconclusive: 89.1 µM [inhibitor, partial curve, poor fit].
In the case of `COc1ccc(-c2sc3cc(OC)c(OC)cc3c2C#CCCO)cc1`, the Potency is reported as inconclusive: 89.1 µM [inhibitor, partial curve, poor fit].
In the case of `Cn1nc(-c2ccc(Cl)cc2)c2cc(C(=O)NCCCN3CCCC3)sc21`, the Potency is reported as active: 31.6 µM.
For `Cc1cc(C)n2c(SC/C(O)=C(\C#N)c3nc4ccccc4[nH]3)nnc2n1`, the Potency was inconclusive: 56.2 µM [inhibitor, partial curve].
In the case of `N#C/C(=C\c1ccc(Cl)cc1)C(=O)NCC1CCCO1` (stereo not given), the Potency is reported as “inactive”.
`OCCCNc1c2ccccc2nc2ccccc12` was tested, and the Potency was active: 22.4 µM.
`Cc1c(C(=O)O)sc2nc(/C=C/c3cccc(O)c3)[nH]c(=O)c12` was tested, and the Potency was inconclusive: 39.8 µM [inhibitor, full curve].
With `CNC(=S)Nc1ccc(OCc2ccccc2)cc1` the Potency was “inactive”.
With `Cc1ccc(C(=O)NNC(=O)c2ccc(S(=O)(=O)N3CCCCC3)cc2)cc1` the Potency was “inactive”.
For `O=C(OCc1cc(=O)n2c(n1)sc1ccccc12)c1cccc(O)c1`, the Potency was “inactive”.
For `COc1cc(/C=C2\SC(=O)N(c3ccc(Cl)cc3)C2=O)cc([N+](=O)[O-])c1O`, the Potency was inconclusive: 79.4 µM [inhibitor, partial curve, poor fit].
`CCOc1ccc(NC(=O)Cc2coc3ccc(C)cc23)cc1` was tested, and the Potency was “inactive”.
`CN1Cc2sc(NC(=S)NC(=O)c3ccccc3)c(C#N)c2CC1(C)C` was tested, and the Potency was inconclusive: 89.1 µM [inhibitor, partial curve, poor fit].
In the case of `C=CCOc1ccc(C(c2c(O)nc(SC)[nH]c2=O)c2c(O)nc(SC)[nH]c2=O)cc1`, the Potency is reported as “inactive”.
With `NC1CCN(c2nc3c(cc2F)c(=O)c(C(=O)O)cn3-c2ccc(F)cc2F)C1` (stereo not given) the Potency was inconclusive: 56.2 µM [inhibitor, partial curve] and inconclusive: 39.8 µM [inhibitor, partial curve].
`O=C1/C(=C/c2ccc3c(c2)OCO3)Oc2cc(OCC(=O)N3CCC[C@H]3C(=O)O)ccc21` was tested, and the Potency was inconclusive: 79.4 µM [inhibitor, partial curve, poor fit].
With `Cc1nnc(NC(=O)c2ccco2)s1` the Potency was “inactive”.
For `c1ccc2sc(C3CCN(Cc4nnnn4Cc4ccc5c(c4)OCO5)CC3)nc2c1`, the Potency was inconclusive: 89.1 µM [inhibitor, partial curve, poor fit].
For `COC(=O)c1ccccc1NC(=O)c1noc2c1CCCC2`, the Potency was “inactive”.
